# Measurements published in the supplement of paper PMC10126150.
# Values marked as one replicate rest on one cluster of the flow cell; about a third of the high ones do not repeat.
# Test system: ATP
# Test: switch fluorescence ratio, 500 uM ATP over buffer (Cy3 cluster intensity, sum of 5 cycles each) (fold (ratio)); higher = stronger signal-on switching upon ATP binding; sequences stand for … in TCGTCGGCAGCGTCAGATGTGTATAAGAGACAGTTTTTTTTTTTTTTTTTTTTTTTTT…TC
# Details: aptamer strand: ATP DNA aptamer (quencher-CACCTGGGGGAGTATTGCGGAGGAAGG + anchor), 100 nM annealed; ATP concentration: 500 uM; one replicate
# Summary of the method: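 The quencher-labelled ATP aptamer, at 100 nM, was annealed to Cy3-labelled switching-strand clusters on a modified Illumina MiSeq flow-cell. The clusters were imaged in selection buffer, then after 15 min with 500 uM ATP at 22 °C, and this buffer/ATP cycle ran five times with NaOH stripping and re-annealing between runs. Per-cluster fluorescence ratios, summed target-cycle over summed buffer-cycle Cy3 intensity, were averaged per switch-domain sequence. Clusters outside 100-1000 RFU were excluded.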
# 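Also: ATP exposure 15 min at 22 °C before imaging.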
row,Sequence,switch fluorescence ratio
1,TCAGAAGCTA,2.2
2,GTGAGTACCG,0.995
3,TTGAGTATAT,1.03
4,GCCATGCTGG,1.04
5,TTGCGATGTT,1.03
6,AACAACTTGG,1.02
7,GCCGAAGAG,0.992
8,TCGGCGCAAG,1.05
9,ATCCGTCTGT,1.1
10,ACCAACCAGG,1.76
11,AGTTCAGTTG,1.04
12,CTGGGGAAGT,0.962
13,GGGTCTTTGC,0.987
14,GATAGCATTG,1
15,CATTAACTCA,1.08
16,GTCATTTATT,1.03
17,GAGATAGG,0.997
18,CAGCCCAGCA,1.02
19,GGATTAGTTG,0.992
20,GAGCTTAAGG,0.97
21,TATCGGTC,1.03
22,GCAATACCAG,4.08
23,ATCAAAGGTC,0.999

row,Sequence,switch fluorescence ratio
1,TGCCGGCTGT,0.977
2,GTAAGAAAAG,0.999
3,CCGGGGGACT,1.23
4,GCTTATCTTG,0.989
5,TCCGTCTGTG,1.01
6,AACACATTCT,0.998
7,TAGGGTATCG,0.928
8,AGTTAAAAAG,0.967
9,TGATTGTCGG,0.989
10,AGGAAGTCAT,1
11,CGAGAGGGTA,0.916
12,TCAGGAACTC,0.956
13,TTGCAATAGA,1.04
14,TACCCATTTA,1
15,GAGACTATAT,1.04
16,AACCGATGTT,1.02
17,TTACTTCAGA,1.01
18,AAAACGGGCG,1.06
19,ATAAACGCTG,1.04
20,AAGTGACGAG,0.958
21,TCGTTTCGGC,1.01
22,CGGTTTGCTG,1.03
23,TCTCCGACGG,1.66

row,Sequence,switch fluorescence ratio
1,GTGTAAGGT,1.01
2,GGGACTGCAA,1.56
3,GCATTTGTCC,1.03
4,TACTGTTGGT,1.02
5,CGCGGTGGTG,1.02
6,GGACGAATAT,1.01
7,GGCCCTGTCC,1.04
8,GATTTCGAGG,1
9,CCATAGTGGG,1.01
10,TTTCTCAGGT,1.06
11,TGTTAGTGAA,1.03
12,CTAGGCTTTC,1.11
13,TAGTATGCGG,0.97
14,GCCTATGATA,0.989
15,ACTCTATGGT,1.07
16,GGTCGTGGTG,1.04
17,AAAAGCGGTG,0.979
18,AGAGTACTTG,0.974
19,AAGCCGATTA,1.01
20,GCGGTTTTAG,1.04
21,AATTATTAGT,1.01
22,TTATCCAAGC,0.954
23,TACAAAATGA,1.04

row,Sequence,switch fluorescence ratio
1,ACTTTTA,0.993
2,TTGTAGGCAG,0.976
3,GGCGACCCCA,1.4
4,TGGCCTTTGC,1.02
5,CGTGGGGCCG,0.974
6,TAAGTGTTG,0.98
7,GCCGTTCTGA,0.996
8,TGTCCTCAGG,1.25
9,ACTCAAGCGG,1.28
10,TCCCGCTTCT,1.33
11,CCGACAAGAG,2.55
12,TGCCCACTGC,0.922
13,CGCTAGACTA,1.66
14,ACAGCCGAAC,1.08
15,ACTTGGTTAG,1.02
16,GGCTCAGCTA,1.13
17,TGAGGCTTAG,1.02
18,GGTTTTACTG,1.05
19,GGGTGGTATA,0.984
20,CATTTGGTG,0.97
21,CTAATGATT,1.02
22,AACTTGCGGC,1.01
23,TTAACTGCCA,1.06

row,Sequence,switch fluorescence ratio
1,AAGGCGCGCT,1.04
2,ATGGTATTCC,0.996
3,CGCTAGTACC,1.77
4,ACGCCTCTGT,1.04
5,GGCGGTGAGT,1.02
6,TACTCATGTA,0.979
7,GTAACGGGAC,1.13
8,TCGGAGTGAA,1.01
9,CTGCATGTTA,1.03
10,GCCCGATCCG,1.03
11,GTGAGAGGTT,1.07
12,ACAGTAAATG,1.02
13,GTGATGACGC,1.19
14,AGAGAGCTGG,1.02
15,CCTGAACGCC,1.98
16,GGAGGGTTTC,1.01
17,CCAACAGGT,2.13
18,TGTTCTCATT,1.02
19,GTGGGGCGC,1.02
20,GTAGTCTGTA,0.98
21,GCAAAGTCGG,1
22,CAGGTGGGTA,1.19
23,TTAACATCCG,0.972

row,Sequence,switch fluorescence ratio
1,TGTGATCGTG,1
2,CTCCTGACAT,1.24
3,CGACCCCGAC,1.58
4,TATCGCCCTT,0.991
5,TGTGTCGAGG,0.981
6,GCATTGCGAG,1.09
7,ATCGTCATGC,1.06
8,GGCCAAGATA,1.04
9,ACCACGCGCC,1.19
10,CTGAGCAATG,4.09
11,TAGAGTGAAG,0.993
12,TTTGACCGAG,1.05
13,GGTAATTTCC,1
14,ATGCATCCTA,0.956
15,CATCGAGTAA,1.05
16,CACAGGTCGA,1.04
17,GGAGGTATTG,0.969
18,AAGTCAGAGA,1.02
19,GGGCATCACT,0.987
20,CCTCAGATCG,1.19
21,TAATCGTAGA,1.05
22,CATAAGTCTT,1.01
23,AAAGGGACT,1.03

row,Sequence,switch fluorescence ratio
1,TGGATTAGG,0.972
2,AGAACCTTCT,2.15
3,AGCATAGCGG,0.953
4,GAGTACGGA,1.03
5,CTGATTTCGA,0.965
6,TCCATTTGAT,1.01
7,GGATAAGCTC,0.991
8,GTACACTTCG,1.04
9,AGTGTTTGCG,0.985
10,GGAATCGCCG,0.998
11,TGGGTTCG,1.05
12,CCACAACCGC,1.23
13,GCCCGAAAAT,0.959
14,CTTAGCTAAA,1.02
15,TCCATTACAT,0.973
16,ATTGTTCTTC,0.951
17,AGGAGTATCC,0.972
18,TATCGTCGGT,0.965
19,GCCAATGAGT,0.988
